Data published in US10299477B2 (priority 2015, dated 2019).

System: Phytophthora infestans
Type: in vivo
Details: evaluated 5-10 days after inoculation; for Test F (control value class, late blight on tomato): 250 ppm, sprayed 2.5 ml/pot before inoculation; for Test F (control value class): Late blight on tomato, 250 ppm spray, 2.5 ml/pot

Structure (SMILES): CCOc1cc(F)c(-c2c(-c3cccc(F)c3Cl)cc(Cl)c(=O)n2CC)c(F)c1 [Compound 658]
- Test F (control value class, late blight on tomato): L (L shows 50% or less of control values)

Structure (SMILES): COc1cccc(-c2cc(C)c(=O)n(C)c2-c2c(F)cc(F)cc2F)c1Cl [Compound 671]
- Test F (control value class, late blight on tomato): L (L shows 50% or less of control values)

Structure (SMILES): CCn1c(-c2c(F)cc(C)cc2F)c(-c2cc(F)ccc2Cl)ccc1=O [Compound 707]
- Test F (control value class, late blight on tomato): L (L shows 50% or less of control values)

Structure (SMILES): COc1cccc(-c2cc(Br)c(=O)n(C)c2-c2c(F)cccc2F)c1Cl [Compound 786]
- Test F (control value class): H (H shows more than 50% of control values)

Structure (SMILES): Cn1c(-c2c(F)cc(F)cc2F)c(-c2ccccc2)cc(Br)c1=O [Compound 780]
- Test F (control value class): L (L shows 50% or less of control values)

Structure (SMILES): COc1ccc(Cl)c(-c2cc(Br)c(=O)n(C)c2-c2c(F)cc(F)cc2F)c1 [Compound 725]
- Test F (control value class, late blight on tomato): L (L shows 50% or less of control values)

Structure (SMILES): Cn1c(-c2c(F)cc(Cl)cc2F)c(-c2cc(F)ccc2Cl)ccc1=O [Compound 604]
- Test F (control value class, late blight on tomato): L (L shows 50% or less of control values)

Structure (SMILES): CCOc1cc(F)c(-c2c(-c3ccc(F)cc3Cl)cc(Cl)c(=O)n2C)c(F)c1 [Compound 616]
- Test F (control value class, late blight on tomato): L (L shows 50% or less of control values)

Structure (SMILES): Cn1c(-c2c(F)cc(F)cc2F)c(-c2ccccc2Cl)cc(Br)c1=O [Compound 720]
- Test F (control value class, late blight on tomato): L (L shows 50% or less of control values)

Structure (SMILES): CCn1c(-c2c(F)cc(F)cc2F)c(-c2cccc(F)c2C)cc(Cl)c1=O [Compound 675]
- Test F (control value class, late blight on tomato): L (L shows 50% or less of control values)

Structure (SMILES): COc1ccc(-c2cc(Br)c(=O)n(C)c2-c2c(F)cc(F)cc2F)c(Cl)c1 [Compound 767]
- Test F (control value class): L (L shows 50% or less of control values)

Structure (SMILES): CCOc1ccc(Cl)c(-c2cc(Cl)c(=O)n(CC)c2-c2c(F)cc(F)cc2F)c1 [Compound 793]
- Test F (control value class): L (L shows 50% or less of control values)

Structure (SMILES): COc1ccc(-c2cc(Cl)c(=O)n(C)c2-c2c(F)cc(F)cc2F)c(Cl)c1 [Compound 766]
- Test F (control value class): L (L shows 50% or less of control values)

Structure (SMILES): O=c1ccc(-c2ccc(F)cc2F)c(-c2c(F)cccc2F)n1CC(F)F [Compound 647]
- Test F (control value class, late blight on tomato): H (H shows more than 50% of control values)

Structure (SMILES): COc1cc(F)c(-c2c(-c3cc(F)cc(F)c3Cl)cc(Cl)c(=O)n2C)c(F)c1 [Compound 677]
- Test F (control value class, late blight on tomato): L (L shows 50% or less of control values)

Structure (SMILES): CCn1c(-c2c(F)cc(F)cc2F)c(-c2ccccc2Cl)cc(Br)c1=O [Compound 683]
- Test F (control value class, late blight on tomato): L (L shows 50% or less of control values)

Structure (SMILES): COc1cc(F)c(-c2c(-c3cc(OC)ccc3Cl)cc(Br)c(=O)n2C)c(F)c1 [Compound 723]
- Test F (control value class, late blight on tomato): L (L shows 50% or less of control values)

Structure (SMILES): CCn1c(-c2c(F)cc(F)cc2F)c(-c2cc(OCOC)ccc2Cl)cc(Cl)c1=O [Compound 795]
- Test F (control value class): L (L shows 50% or less of control values)

Structure (SMILES): CCn1c(-c2c(F)cc(F)cc2F)c(-c2cccc(OC)c2Cl)cc(Cl)c1=O [Compound 619]
- Test F (control value class, late blight on tomato): L (L shows 50% or less of control values)

Structure (SMILES): CCn1c(-c2c(F)cc(OC)cc2F)c(-c2cc(F)c(F)cc2F)cc(Cl)c1=O [Compound 637]
- Test F (control value class, late blight on tomato): L (L shows 50% or less of control values)

Structure (SMILES): COc1cc(F)c(-c2c(-c3ccccc3)ccc(=O)n2C)c(F)c1 [Compound 778]
- Test F (control value class): L (L shows 50% or less of control values)

Structure (SMILES): CCn1c(-c2c(F)cccc2F)c(-c2ccc(F)cc2F)ccc1=O [Compound 629]
- Test F (control value class, late blight on tomato): L (L shows 50% or less of control values)

Structure (SMILES): CCn1c(-c2c(F)cc(F)cc2F)c(-c2ccc(Br)cc2Cl)ccc1=O [Compound 624]
- Test F (control value class, late blight on tomato): H (H shows more than 50% of control values)

Structure (SMILES): Cc1cc(F)c(-c2c(-c3cc(F)ccc3Cl)ccc(=O)n2C)c(F)c1 [Compound 690]
- Test F (control value class, late blight on tomato): L (L shows 50% or less of control values)

Structure (SMILES): Cn1c(-c2c(F)cc(Br)cc2F)c(-c2cc(F)ccc2Cl)ccc1=O [Compound 680]
- Test F (control value class, late blight on tomato): L (L shows 50% or less of control values)

Structure (SMILES): CCn1c(-c2c(F)cc(OC)cc2F)c(-c2cccc(OC)c2Cl)ccc1=O [Compound 633]
- Test F (control value class, late blight on tomato): H (H shows more than 50% of control values)

Structure (SMILES): CCn1c(-c2c(F)cc(C)cc2F)c(-c2cc(F)ccc2Cl)cc(Cl)c1=O [Compound 708]
- Test F (control value class, late blight on tomato): L (L shows 50% or less of control values)

Structure (SMILES): COc1cc(F)c(-c2c(-c3ccc(OC)cc3Cl)cc(Cl)c(=O)n2C)c(F)c1 [Compound 776]
- Test F (control value class): L (L shows 50% or less of control values)

Structure (SMILES): CCOc1cc(F)c(-c2c(-c3cccc(OC)c3Cl)cc(Cl)c(=O)n2CC)c(F)c1 [Compound 641]
- Test F (control value class, late blight on tomato): L (L shows 50% or less of control values)

Structure (SMILES): CCn1c(-c2c(F)cc(F)cc2F)c(-c2cccc(F)c2F)cc(C)c1=O [Compound 609]
- Test F (control value class, late blight on tomato): L (L shows 50% or less of control values)

Structure (SMILES): CCn1c(-c2c(F)cc(OC)cc2F)c(-c2cc(OC)cc(F)c2Cl)cc(Cl)c1=O [Compound 627]
- Test F (control value class, late blight on tomato): L (L shows 50% or less of control values)

Structure (SMILES): COc1cc(F)c(-c2c(-c3ccc(F)cc3Cl)cc(Cl)c(=O)n2C)c(F)c1 [Compound 600]
- Test F (control value class, late blight on tomato): L (L shows 50% or less of control values)

Structure (SMILES): CCn1c(-c2c(F)cc(F)cc2F)c(-c2cc(F)cc(F)c2)ccc1=O [Compound 789]
- Test F (control value class): L (L shows 50% or less of control values)

Structure (SMILES): CCOc1cc(F)c(-c2c(-c3cccc(F)c3C)cc(C)c(=O)n2CC)c(F)c1 [Compound 713]
- Test F (control value class, late blight on tomato): L (L shows 50% or less of control values)

Structure (SMILES): CCn1c(-c2c(F)cc(F)cc2F)c(-c2cc(OCC#N)ccc2Cl)cc(Cl)c1=O [Compound 794]
- Test F (control value class): L (L shows 50% or less of control values)

Structure (SMILES): CCn1c(-c2c(F)cc(OC)cc2F)c(-c2ccccc2)cc(Br)c1=O [Compound 775]
- Test F (control value class): L (L shows 50% or less of control values)

Structure (SMILES): Cn1c(-c2c(F)cc(F)cc2F)c(-c2ccccc2)cc(Cl)c1=O [Compound 779]
- Test F (control value class): L (L shows 50% or less of control values)

Structure (SMILES): CCOc1cc(F)c(-c2c(-c3ccccc3Cl)ccc(=O)n2CC)c(F)c1 [Compound 685]
- Test F (control value class, late blight on tomato): L (L shows 50% or less of control values)

Structure (SMILES): CCn1c(-c2c(F)cc(OC)cc2F)c(-c2ccccc2Cl)ccc1=O [Compound 718]
- Test F (control value class, late blight on tomato): L (L shows 50% or less of control values)

Structure (SMILES): CCOc1cc(F)c(-c2c(-c3cccc(F)c3C)cc(Br)c(=O)n2CC)c(F)c1 [Compound 712]
- Test F (control value class, late blight on tomato): L (L shows 50% or less of control values)

Structure (SMILES): Cc1cc(F)c(-c2c(-c3cc(F)ccc3Cl)cc(Cl)c(=O)n2C)c(F)c1 [Compound 691]
- Test F (control value class, late blight on tomato): L (L shows 50% or less of control values)

Structure (SMILES): COc1cc(F)c(-c2c(-c3cc(F)c(F)cc3F)ccc(=O)n2C)c(F)c1 [Compound 654]
- Test F (control value class, late blight on tomato): H (H shows more than 50% of control values)

Structure (SMILES): Cc1cc(-c2cc(F)cc(F)c2Cl)c(-c2c(F)cc(F)cc2F)n(C)c1=O [Compound 694]
- Test F (control value class, late blight on tomato): L (L shows 50% or less of control values)

Structure (SMILES): CCn1c(-c2c(F)cc(F)cc2F)c(-c2ccccc2Cl)ccc1=O [Compound 715]
- Test F (control value class, late blight on tomato): L (L shows 50% or less of control values)

Structure (SMILES): COc1cc(F)c(-c2c(-c3cc(F)cc(F)c3Cl)cc(Cl)c(=O)n2CC(F)F)c(F)c1 [Compound 679]
- Test F (control value class, late blight on tomato): L (L shows 50% or less of control values)

Structure (SMILES): CN1C(=O)CCC(c2ccccc2Cl)=C1c1c(F)cc(F)cc1F [Compound 705]
- Test F (control value class, late blight on tomato): L (L shows 50% or less of control values)

Structure (SMILES): COc1cc(F)c(-c2c(-c3ccc(OC)cc3Cl)ccc(=O)n2C)c(F)c1 [Compound 765]
- Test F (control value class): L (L shows 50% or less of control values)

Structure (SMILES): COc1cc(F)c(-c2c(-c3cc(F)cc(F)c3Cl)ccc(=O)n2CC(F)F)c(F)c1 [Compound 678]
- Test F (control value class, late blight on tomato): L (L shows 50% or less of control values)

Structure (SMILES): CCn1c(-c2c(F)cc(F)cc2F)c(-c2ccccc2)ccc1=O [Compound 762]
- Test F (control value class): H (H shows more than 50% of control values)

Structure (SMILES): CCOc1cc(F)c(-c2c(-c3cccc(OC)c3Cl)ccc(=O)n2C)c(F)c1 [Compound 664]
- Test F (control value class, late blight on tomato): H (H shows more than 50% of control values)

Structure (SMILES): CCOc1cc(F)c(-c2c(-c3cccc(F)c3C)cc(Cl)c(=O)n2CC)c(F)c1 [Compound 700]
- Test F (control value class, late blight on tomato): L (L shows 50% or less of control values)

Structure (SMILES): CCn1c(-c2c(F)cc(Br)cc2F)c(-c2cc(F)ccc2Cl)cc(Cl)c1=O [Compound 706]
- Test F (control value class, late blight on tomato): L (L shows 50% or less of control values)

Structure (SMILES): O=c1c(Cl)cc(-c2ccc(F)cc2F)c(-c2c(F)cccc2F)n1CC(F)F [Compound 648]
- Test F (control value class, late blight on tomato): L (L shows 50% or less of control values)

Structure (SMILES): Cn1c(-c2c(F)cccc2F)c(-c2ccc(F)cc2F)cc(Cl)c1=O [Compound 646]
- Test F (control value class, late blight on tomato): L (L shows 50% or less of control values)

Structure (SMILES): CCn1c(-c2c(F)cc(F)cc2F)c(-c2cccc(OC)c2Cl)ccc1=O [Compound 618]
- Test F (control value class, late blight on tomato): L (L shows 50% or less of control values)
